Experimental data from paper PMC4336329 (PLoS ONE, 2015).
The whole screen tested about 310,000 compounds, of which about 14,000 (4.5%) showed an effect of 50% or more. The effect is printed as a negative number. The list shows a part of the results.

These molecules were tested against human ether-à-go-go-related gene (hERG) potassium channel (human, UniProt Q12809) (assay: primary screen, population patch clamp on CHO cells stably expressing hERG).
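Also: peak tail current of the secondary pulse compared with the same well before compound.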

Sequence of human ether-à-go-go-related gene (hERG) potassium channel (Q12809 whole entry, looked up): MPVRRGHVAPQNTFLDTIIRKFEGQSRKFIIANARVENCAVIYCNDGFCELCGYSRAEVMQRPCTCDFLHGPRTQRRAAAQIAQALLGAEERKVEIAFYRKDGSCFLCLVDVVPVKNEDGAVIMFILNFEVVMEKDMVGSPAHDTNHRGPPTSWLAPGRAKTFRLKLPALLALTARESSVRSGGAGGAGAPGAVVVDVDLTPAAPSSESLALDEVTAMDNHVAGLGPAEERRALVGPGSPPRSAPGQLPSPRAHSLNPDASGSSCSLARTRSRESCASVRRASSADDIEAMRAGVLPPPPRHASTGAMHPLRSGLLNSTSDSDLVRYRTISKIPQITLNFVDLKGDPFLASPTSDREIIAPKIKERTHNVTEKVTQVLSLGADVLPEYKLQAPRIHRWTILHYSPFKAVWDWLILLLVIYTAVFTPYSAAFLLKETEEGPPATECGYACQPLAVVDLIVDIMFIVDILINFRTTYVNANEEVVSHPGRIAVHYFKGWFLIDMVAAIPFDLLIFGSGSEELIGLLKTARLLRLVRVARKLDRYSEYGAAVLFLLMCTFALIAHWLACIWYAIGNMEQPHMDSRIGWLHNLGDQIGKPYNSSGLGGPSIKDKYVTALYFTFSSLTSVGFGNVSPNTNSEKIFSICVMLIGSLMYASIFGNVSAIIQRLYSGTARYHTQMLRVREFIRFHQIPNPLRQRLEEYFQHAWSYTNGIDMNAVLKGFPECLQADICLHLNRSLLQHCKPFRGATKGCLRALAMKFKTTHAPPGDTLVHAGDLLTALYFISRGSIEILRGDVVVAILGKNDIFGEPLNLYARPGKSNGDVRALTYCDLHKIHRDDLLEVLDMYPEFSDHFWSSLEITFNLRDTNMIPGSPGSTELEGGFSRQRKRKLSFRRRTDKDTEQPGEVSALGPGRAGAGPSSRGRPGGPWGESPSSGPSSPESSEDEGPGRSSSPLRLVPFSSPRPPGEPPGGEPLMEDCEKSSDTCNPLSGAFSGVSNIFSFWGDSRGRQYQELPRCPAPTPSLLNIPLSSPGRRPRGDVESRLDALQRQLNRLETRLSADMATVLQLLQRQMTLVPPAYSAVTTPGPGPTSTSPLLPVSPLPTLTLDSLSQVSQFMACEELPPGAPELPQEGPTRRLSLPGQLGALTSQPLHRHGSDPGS

Compared with `CCn1ccnc1CN(C)C(=O)c1ccc2nc(Cc3ccc(OC)cc3)oc2c1`, `COc1ccc(-c2cc3ccccc3cn2)cc1` is higher in “hERG current change (%, negative = inhibition) at 10uM” value: -45.7% for the first, 14.5% for the second.

Compared with `CCN1CCN(c2nc(S(=O)(=O)c3ccc(C)cc3)c(Cl)s2)CC1.Cl`, `Clc1ccccc1CN1CCN(c2ccccc2)CC1` is higher in “hERG current change (%, negative = inhibition) at 10uM” value: -30.7% for the first, 18.8% for the second.

Compared with `O=C(CC(c1ccccc1)c1ccccc1)OCn1nnc2ccccc2c1=O`, `CCN1CCc2nc(NC(=O)C(c3ccccc3)c3ccccc3)sc2C1` is lower in “hERG current change (%, negative = inhibition) at 10uM” value: 10.1% for the first, -10.9% for the second.

Going from `COc1cccc(-c2nc(CS(=O)(=O)CC(=O)NCc3ccccc3)c(C)o2)c1` to `COCC(=O)Nc1nc(-c2ccc(-c3ccccc3)cc2)cs1`, the “hERG current change (%, negative = inhibition) at 10uM” value rises from -15.2% to 17.5%.

Compared with `Cc1ccc2cc(CN(CC3CCCO3)C(=O)c3cccs3)c(=O)[nH]c2c1` (stereo not drawn), `Cc1ccc(NS(=O)(=O)c2ccc3[nH]c(=O)[nH]c3c2)c(C)c1` is higher in “hERG current change (%, negative = inhibition) at 10uM” value: -38.8% for the first, 23.4% for the second.

First: Cc1cc(C)cc(OCc2nc(-c3cccnc3)no2)c1
Second: Cc1cc(C)cc(OCC(=O)Nc2nc3ccc([N+](=O)[O-])cc3s2)c1
The “hERG current change (%, negative = inhibition) at 10uM” value of the first is lower: 0.615% for the first, 4.71% for the second.

First: Cn1c(=O)c2c(nc(CN3CCc4ccccc4C3)n2Cc2ccccc2)n(C)c1=O
Second: CCN(CC)CC(=O)N1c2ccccc2Oc2c(c(=O)n(C)c(=O)n2C)C1c1cccc([N+](=O)[O-])c1 (stereo not drawn)
The “hERG current change (%, negative = inhibition) at 10uM” value of the first is lower: -17.5% for the first, -7.86% for the second.

First: O=c1c2cc(N3CCOCC3)ccc2[nH]c(=S)n1CCCN1CCCC1
Second: O=C1CC(C(=O)N2CCN(c3ccc(F)cc3)CC2)CN1CCc1ccccc1 (stereo not drawn)
The “hERG current change (%, negative = inhibition) at 10uM” value of the first is higher: -4.98% for the first, -50.5% for the second.

First: COc1cccc(CC(NC(C)=O)C(=O)NC2CCN(S(=O)(=O)c3ccc(C)cc3)CC2)c1OC (stereo not drawn)
Second: O=C1COc2ccc(S(=O)(=O)N3CCC(C(=O)NCc4ccc(F)cc4)CC3)cc2N1
The “hERG current change (%, negative = inhibition) at 10uM” value of the first is higher: 17.8% for the first, 10.4% for the second.

Compared with `NS(=O)(=O)c1ccc(CNC(=O)CC23CC4CC(CC(C4)C2)C3)cc1`, `CCCCCC(=O)Nc1cccc(S(=O)(=O)NC2=NCCCCC2)c1` is lower in “hERG current change (%, negative = inhibition) at 10uM” value: -5.69% for the first, -18.4% for the second.

First: CCOC(=O)C1NN=C(C(=O)c2ccc(C)cc2)C1c1ccc(C)cc1 (stereo not drawn)
Second: Cc1cccc(NC(=O)c2ccc(S(=O)(=O)NCc3cccnc3)cc2)c1C
The “hERG current change (%, negative = inhibition) at 10uM” value of the first is lower: -34.9% for the first, -6.29% for the second.

Going from `Cc1nc(NC(=O)COC(=O)C2=NNC(=O)CC2)c(Cl)cc1Cl` to `COC(=O)c1c(NC(=O)CN2C(=O)C(=O)N(C(C)C)C2=O)sc(C)c1C`, the “hERG current change (%, negative = inhibition) at 10uM” value falls from -1.01% to -3.9%.

First: COC(=O)C1=CN(CC2CCCO2)C=C(C(=O)OC)C1c1ccsc1 (stereo not drawn)
Second: COC(=O)c1sc(N)c(C(=O)OC)c1COC(=O)C12CC3CC(CC(O)(C3)C1)C2
The “hERG current change (%, negative = inhibition) at 10uM” value of the first is lower: -11.5% for the first, 5.88% for the second.

Going from `CCOc1ccc(C2c3[nH]c4ccccc4c3CCN2Cc2cn(CC)nc2C)cc1` (stereo not drawn) to `CC1(CCc2ccc3c(c2)OCO3)NCCc2c1[nH]c1ccccc21.Cl` (stereo not drawn), the “hERG current change (%, negative = inhibition) at 10uM” value falls from -63.6% to -85.8%.

Going from `Cc1ccc(CC(=O)N/N=C/c2ccc(OC(=O)c3ccc([N+](=O)[O-])cc3)cc2)cc1` to `CCc1ccc(C(=O)N/N=C/c2cccc3ccccc23)nc1`, the “hERG current change (%, negative = inhibition) at 10uM” value falls from 5.7% to 1.8%.

Compared with `N#Cc1c(N)sc2c1CCN(C(=O)OCc1ccccc1)C2`, `Nc1c(C(=O)Nc2ccccc2)sc2nc3c(c(-c4ccco4)c12)CCC3` is higher in “hERG current change (%, negative = inhibition) at 10uM” value: -14.9% for the first, 13.1% for the second.

First: COc1cc(C(=O)n2nc(C)cc2C)ccc1O
Second: CSc1ncc(C(=O)Nc2cc(C)ccc2C)c(C)n1
The “hERG current change (%, negative = inhibition) at 10uM” value of the first is higher: -8.08% for the first, -34.7% for the second.

Going from `Cc1cc(O)c(C(C)C)cc1N=Nc1ccccc1C(=O)O` to `Cc1cc(O)c(S(=O)(=O)c2ccccc2)c(C)c1NS(=O)(=O)c1ccccc1`, the “hERG current change (%, negative = inhibition) at 10uM” value falls from -1.98% to -7.72%.

Compared with `CC(C)Sc1nnc(NC(=O)c2ccco2)s1`, `Cc1ccc(NC(=O)CCC(=O)NNC(=O)c2ccco2)c(C)c1` is lower in “hERG current change (%, negative = inhibition) at 10uM” value: 14.8% for the first, -3.29% for the second.

Going from `Nc1nc(Cn2nnc(-c3ccccc3F)n2)nc(N2CCOCC2)n1` to `N#Cc1c(N2CCOCC2)nsc1-c1ccc(C(F)(F)F)cc1`, the “hERG current change (%, negative = inhibition) at 10uM” value rises from -73.4% to -0.272%.

Compared with `COC(=O)c1cccc(NC(=O)CCSc2ccc(Cl)cc2)c1C`, `O=C(CCSc1ccccn1)Nc1ccc(Br)cc1` is lower in “hERG current change (%, negative = inhibition) at 10uM” value: 8.65% for the first, -27% for the second.

First: CC(C)(C)n1nc2c(c1NC(=O)COc1ccc3ccccc3c1)CS(=O)C2 (stereo not drawn)
Second: Cc1cnc(C(=O)N2CCN(S(=O)(=O)c3ccc4ccccc4c3)CC2)cn1
The “hERG current change (%, negative = inhibition) at 10uM” value of the first is higher: 3.36% for the first, -8.41% for the second.

Compared with `COc1ccccc1NC(=O)/C=C/C(N)=O`, `COc1ccc(OC)c(NC(=O)CCNS(=O)(=O)c2cccs2)c1` is higher in “hERG current change (%, negative = inhibition) at 10uM” value: -12.9% for the first, 1.56% for the second.

Compared with `CCOC(=O)CSc1nnc(C)c(=O)[nH]1`, `COC(=O)CCn1nnc(-c2ccc(C(C)C)cc2)n1` is lower in “hERG current change (%, negative = inhibition) at 10uM” value: 19.8% for the first, -9.31% for the second.

Going from `CSC1=NC(C(Cl)(Cl)Cl)N=C(c2ccccc2)N1` (stereo not drawn) to `CC1(CO)COC(c2ccccc2)=N1` (stereo not drawn), the “hERG current change (%, negative = inhibition) at 10uM” value falls from -1.83% to -13%.

Going from `NC1=NC(=Nc2cccc(Cl)c2)c2ccccc21` to `CCOc1ccc(Cl)cc1CNCCc1ccccc1F.Cl`, the “hERG current change (%, negative = inhibition) at 10uM” value falls from 2.96% to -59.8%.

Compared with `COc1ccccc1N1CCN(C2CCCN(C(=O)CCn3cncn3)C2)CC1` (stereo not drawn), `O=C(CSc1nnc(-c2ccccc2)n1C1CCCCC1)N1CCCC1` is lower in “hERG current change (%, negative = inhibition) at 10uM” value: 13% for the first, -6.76% for the second.

First: CC(C)(C)c1ccc(C(=O)Oc2ccc3c(c2)OCC3=O)cc1
Second: CCOc1ccc(N2C(=O)/C(=C/c3ccco3)N(C)C2=S)cc1
The “hERG current change (%, negative = inhibition) at 10uM” value of the first is higher: 2.55% for the first, -4.46% for the second.

Compared with `CCn1c(C)c(C(C)=O)c(N2CCC(C(N)=O)CC2)nc1=S`, `NC(=O)[C@@H]1CCCN1C(=O)c1cc(COc2ccc(F)cc2F)on1` is higher in “hERG current change (%, negative = inhibition) at 10uM” value: 10.3% for the first, 22.2% for the second.

Compared with `COc1ccc(CCNC(=O)CSc2nnc3c(n2)[nH]c2ccc(F)cc23)cc1OC`, `COc1ccc(CCNS(=O)(=O)c2ccc(Cl)cc2)cc1OC` is lower in “hERG current change (%, negative = inhibition) at 10uM” value: 12.8% for the first, -6.54% for the second.

Going from `Nc1ncccc1OCc1cccc(C(F)(F)F)c1` to `O=C(CCSc1nc(-c2ccco2)cc(C(F)(F)F)n1)N1CCN(c2ccccn2)CC1`, the “hERG current change (%, negative = inhibition) at 10uM” value falls from -4.68% to -43.1%.

Going from `CC(=O)Nc1ccc(S(=O)(=O)Nc2ccc3c(c2)CCC3)cc1` to `Cc1ccccc1NCC(=O)Nc1cc(S(=O)(=O)N2CCCCC2)ccc1C`, the “hERG current change (%, negative = inhibition) at 10uM” value rises from -1.39% to 0.834%.

Compared with `CCC(C)(C)n1nnnc1C(c1ccccc1OC)N1CCSCC1` (stereo not drawn), `Cc1ccc(C)c(OCC(=O)NCC(C)(C)N2CCOCC2)c1` is higher in “hERG current change (%, negative = inhibition) at 10uM” value: -24.1% for the first, -21.9% for the second.

First: CCC(CC)C(=O)Nc1nnc(S(=O)(=O)N2CCCCCC2)s1
Second: C=CCNC(=O)C1CCN(S(=O)(=O)c2cccs2)CC1
The “hERG current change (%, negative = inhibition) at 10uM” value of the first is lower: 1.54% for the first, 16.6% for the second.

Going from `Cc1nc([N+](=O)[O-])cn1CC(=O)c1ccc(F)cc1` to `Cc1ccc(-n2c(C)cc(/C=N/Nc3ccc([N+](=O)[O-])cn3)c2C)c(C)c1`, the “hERG current change (%, negative = inhibition) at 10uM” value falls from 10.5% to 10.4%.

Compared with `COc1cccc(C2CC(c3cccs3)=NN2S(C)(=O)=O)c1OC` (stereo not drawn), `COc1ccc(C2CC(c3cccs3)=Nc3ccccc3S2)cc1OC` (stereo not drawn) is higher in “hERG current change (%, negative = inhibition) at 10uM” value: 7.29% for the first, 13.3% for the second.

Going from `O=C(Nc1ccc(CN2CCOCC2)cc1)c1cc(Cl)ccc1Cl` to `CCCCc1ncc(CN2CCC(n3nccc3NC(=O)c3ccccc3Cl)CC2)[nH]1`, the “hERG current change (%, negative = inhibition) at 10uM” value falls from 0.807% to -40.3%.

First: O=C(CCc1ccccc1)NNC(=O)COc1ccccc1Cl
Second: COc1ccc(N2C(=O)C3C(c4ccc(OC)cc4O)NC(Cc4ccccc4)(C(=O)O)C3C2=O)cc1 (stereo not drawn)
The “hERG current change (%, negative = inhibition) at 10uM” value of the first is lower: 14% for the first, 19.5% for the second.

First: Cl.O=C1C2CCN(CC2)C1Cc1ccc(OCCOc2ccccc2)cc1 (stereo not drawn)
Second: Cl.OC(c1ccc(F)cc1)C(c1ccccc1)N1CCOCC1 (stereo not drawn)
The “hERG current change (%, negative = inhibition) at 10uM” value of the first is lower: -20.2% for the first, 5.22% for the second.

Compared with `CC1(C)Cc2c(sc3nc4n(c(=N)c23)CCC4)CO1`, `N#Cc1cc2c([nH]c1=S)CCCCCC2` is lower in “hERG current change (%, negative = inhibition) at 10uM” value: 4.27% for the first, 3.43% for the second.

Compared with `FC(F)Oc1ccc(NC(=S)NC2CCCCCCC2)cc1`, `COc1ccc(-c2noc(CCC(=O)NCCCN3CCC(C)CC3)n2)cc1` is lower in “hERG current change (%, negative = inhibition) at 10uM” value: 7.35% for the first, -5.81% for the second.

Compared with `NC(=O)c1nsc(C(=O)N(CC(=O)NCc2ccco2)c2ccccc2F)c1N`, `O=C(CSc1nc(C2CC2)n(-c2ccccc2)n1)NCc1ccco1` is higher in “hERG current change (%, negative = inhibition) at 10uM” value: -33.2% for the first, -17.2% for the second.

First: Cc1[nH]nc2c1C(c1ccoc1)C(C#N)=C(N)O2 (stereo not drawn)
Second: COC(=O)c1oc2ccc(Br)cc2c1NC(C)=O
The “hERG current change (%, negative = inhibition) at 10uM” value of the first is lower: -8.65% for the first, 3.19% for the second.

Going from `CC(C)(C)n1cc(S(=O)(=O)c2ccccc2)[nH]c1=O` to `COc1ccc([N+](=O)[O-])cc1N(CC(O)CN1CCOCC1)S(=O)(=O)c1ccccc1` (stereo not drawn), the “hERG current change (%, negative = inhibition) at 10uM” value rises from 16.5% to 20%.

Going from `C=CCn1c2ccccc2c(=O)c2cc(C#Cc3ccccn3)ccc21` to `O=c1nc(Nc2ccccc2)sc2ccc([N+](=O)[O-])cc12`, the “hERG current change (%, negative = inhibition) at 10uM” value rises from -0.113% to 0.136%.
